About 14,000 (4.5%) of roughly 310,000 compounds showed an effect of 50% or more. Effects have a minus sign here. Some of the results follow.
molecular target: human ether-à-go-go-related gene (hERG) potassium channel (human, UniProt Q12809); assay: primary screen, population patch clamp on CHO cells stably expressing hERG
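Note: peak tail current of the secondary pulse compared with the same well before compound.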

Sequence of human ether-à-go-go-related gene (hERG) potassium channel (Q12809 whole entry, looked up): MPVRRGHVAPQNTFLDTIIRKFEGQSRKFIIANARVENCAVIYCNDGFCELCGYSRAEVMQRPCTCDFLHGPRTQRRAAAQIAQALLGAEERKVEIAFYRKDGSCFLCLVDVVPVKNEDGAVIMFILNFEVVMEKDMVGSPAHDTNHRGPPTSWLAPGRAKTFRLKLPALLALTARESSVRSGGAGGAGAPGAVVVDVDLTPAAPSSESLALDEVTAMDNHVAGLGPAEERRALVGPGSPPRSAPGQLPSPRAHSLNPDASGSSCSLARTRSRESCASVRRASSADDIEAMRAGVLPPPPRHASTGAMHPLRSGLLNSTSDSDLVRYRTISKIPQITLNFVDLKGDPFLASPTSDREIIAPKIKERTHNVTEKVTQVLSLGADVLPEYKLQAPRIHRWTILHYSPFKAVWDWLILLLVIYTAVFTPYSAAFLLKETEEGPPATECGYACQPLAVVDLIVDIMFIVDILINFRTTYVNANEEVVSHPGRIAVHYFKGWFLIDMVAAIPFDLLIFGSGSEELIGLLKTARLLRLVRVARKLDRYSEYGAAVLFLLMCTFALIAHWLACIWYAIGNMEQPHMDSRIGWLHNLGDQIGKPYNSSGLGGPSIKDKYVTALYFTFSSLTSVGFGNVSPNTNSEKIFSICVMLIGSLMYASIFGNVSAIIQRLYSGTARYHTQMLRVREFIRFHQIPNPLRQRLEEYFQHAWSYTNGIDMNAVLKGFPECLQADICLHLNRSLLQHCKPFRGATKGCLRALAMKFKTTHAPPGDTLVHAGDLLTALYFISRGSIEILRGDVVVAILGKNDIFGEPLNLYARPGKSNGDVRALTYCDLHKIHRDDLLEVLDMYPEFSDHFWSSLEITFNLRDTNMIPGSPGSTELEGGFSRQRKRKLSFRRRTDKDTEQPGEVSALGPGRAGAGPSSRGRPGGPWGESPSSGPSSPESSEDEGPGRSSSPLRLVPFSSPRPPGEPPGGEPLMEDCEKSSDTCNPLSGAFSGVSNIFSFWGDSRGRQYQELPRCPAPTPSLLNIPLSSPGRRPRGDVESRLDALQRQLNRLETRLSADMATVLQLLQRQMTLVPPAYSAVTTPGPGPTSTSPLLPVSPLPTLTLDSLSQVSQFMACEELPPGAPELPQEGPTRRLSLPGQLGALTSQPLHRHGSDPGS

Q: How did the “hERG current change (%, negative = inhibition) at 10uM” value turn out when `CCOC(=O)C[C@H]1c2ccccc2S(=O)(=O)N1C1CC1` was run?
A: 5.78%

Q: For `COc1ccc(Nc2nc(C(=O)N(CCO)Cc3ccccc3)cs2)cc1`, which “hERG current change (%, negative = inhibition) at 10uM” value is on record?
A: -17.1%

Q: With `CN(C)/C=C(/C(=O)c1ccc(Cl)cc1)n1cncn1` as the compound, how does the “hERG current change (%, negative = inhibition) at 10uM” value read?
A: -5.95%

Q: How did the “hERG current change (%, negative = inhibition) at 10uM” value turn out when `CN(C)S(=O)(=O)c1ccc(C(=O)Nc2cc(S(=O)(=O)Nc3ccccc3Cl)ccc2N2CCCCC2)cc1` was run?
A: 25.5%

Q: Which “hERG current change (%, negative = inhibition) at 10uM” value does the source give for `COc1ccc(Cl)cc1S(=O)(=O)NC(C)C(=O)NCCCn1ccnc1` (stereo not drawn) here?
A: 6.81%

Q: Which “hERG current change (%, negative = inhibition) at 10uM” value does the source give for `CC(C)C(=O)NC(Nc1cccc([N+](=O)[O-])c1)C(Cl)(Cl)Cl` (stereo not drawn) here?
A: -18.6%

Q: `CCOc1ccc(C2OC(=O)Cc3cc(OC)c(OC)cc32)cc1` (stereo not drawn) was tested. Which “hERG current change (%, negative = inhibition) at 10uM” value did it give?
A: -4.4%

Q: For `COc1ccc(C(=O)c2c(O)cc(-c3ccc(OC)cc3)oc2=O)cc1`, which “hERG current change (%, negative = inhibition) at 10uM” value is on record?
A: 5.24%

Q: With `CCN(CC)CCN(Cc1cc2cc3c(cc2[nH]c1=O)OCCO3)C(=S)NCCCN(C)C` as the compound, how does the “hERG current change (%, negative = inhibition) at 10uM” value read?
A: 12.1%

Q: `CCOc1ccc(N=Cc2ccc3ccccc3c2)cc1` was tested. Which “hERG current change (%, negative = inhibition) at 10uM” value did it give?
A: -0.84%

Q: With `O=C1NCC(O)=C1C=NC12CC3CC(CC(C3)C1)C2` [14736166] as the compound, how does the “hERG current change (%, negative = inhibition) at 10uM” value read?
A: 3.2%

Q: With `CCCCOc1ccc(C(=O)N2CCN(c3ccc(N4CCOCC4)nn3)CC2)cc1` as the compound, how does the “hERG current change (%, negative = inhibition) at 10uM” value read?
A: -41.2%

Q: With `CCOC(=O)c1cc2occc2n1Cc1c(F)cccc1Cl` as the compound, how does the “hERG current change (%, negative = inhibition) at 10uM” value read?
A: 7.64%

Q: `Cc1cc(C)c(NC(=O)C2CC3CCC2C3)c(C)c1` (stereo not drawn) was tested. Which “hERG current change (%, negative = inhibition) at 10uM” value did it give?
A: 26.1%

Q: With `CCCCCNS(=O)(=O)c1cc2c3c(c1)CCC(=O)N3CCC2` as the compound, how does the “hERG current change (%, negative = inhibition) at 10uM” value read?
A: -14.6%

Q: `C[C@]1(CO)CCC[C@@]2(C)C1CC[C@@H](CO)[C@@H]2CCc1ccoc1` (stereo partly drawn) was tested. Which “hERG current change (%, negative = inhibition) at 10uM” value did it give?
A: -6.31%

Q: How did the “hERG current change (%, negative = inhibition) at 10uM” value turn out when `Nn1c(-c2ccccn2)nnc1-c1ccccn1` was run?
A: -1.69%

Q: With `COc1ccc(S(=O)(=O)N(Cc2ccccc2)c2ccccc2C(=O)N2CCOCC2)cc1` as the compound, how does the “hERG current change (%, negative = inhibition) at 10uM” value read?
A: -8.54%

Q: For `Cc1ccc(/C=N/NC(=O)c2cc3c(ccc4ccccc43)o2)cc1[N+](=O)[O-]`, which “hERG current change (%, negative = inhibition) at 10uM” value is on record?
A: 3.49%

Q: For `COc1ccc(S(=O)(=O)N(C)CC(=O)Nc2ccc3c(c2)OCO3)cc1OC`, which “hERG current change (%, negative = inhibition) at 10uM” value is on record?
A: -21.6%

Q: How did the “hERG current change (%, negative = inhibition) at 10uM” value turn out when `COC(=O)C1CCN(C(=O)COC(=O)c2ccc(=O)n(Cc3ccccc3)n2)CC1` was run?
A: -4.78%

Q: With `CCS(=O)(=O)Nc1ccc(C(=O)NCCSc2ccccc2)cc1` as the compound, how does the “hERG current change (%, negative = inhibition) at 10uM” value read?
A: -11.1%

Q: `CN(C)S(=O)(=O)c1ccc(C(=O)NCc2ccccc2)cc1` was tested. Which “hERG current change (%, negative = inhibition) at 10uM” value did it give?
A: -14.7%

Q: How did the “hERG current change (%, negative = inhibition) at 10uM” value turn out when `Cc1ccc(NC(=O)Cn2ncn3c(cc4ccccc43)c2=O)cc1F` was run?
A: 17.5%

Source: article PMC4336329 (PLoS ONE, 2015)
